In US20230279153A1 (Regeneron, published 2023):
Values belong to the binder of their own block, whether it stands above or below them.

What was measured:
mouse CD20 = molecular target: T1, mouse CD20 (mouse, UniProt P19437 1-291); assay: flow cytometry on MC38/mCD20 cells
T1 construct: whole, on cells; also called mCD20; murine CD20
T1 sequence (looked up): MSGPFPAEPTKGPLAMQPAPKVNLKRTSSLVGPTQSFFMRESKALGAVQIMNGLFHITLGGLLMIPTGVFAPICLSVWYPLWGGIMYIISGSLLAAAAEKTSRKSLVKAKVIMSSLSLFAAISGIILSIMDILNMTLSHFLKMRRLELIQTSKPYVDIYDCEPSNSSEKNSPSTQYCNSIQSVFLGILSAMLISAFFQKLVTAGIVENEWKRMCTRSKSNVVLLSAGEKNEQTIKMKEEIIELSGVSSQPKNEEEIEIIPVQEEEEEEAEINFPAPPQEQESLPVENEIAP
Description: (§1) Cells (HEK 293, MC38 over-expressing mCD20 or Jurkat over-expressing mPD1) were resuspended in FACS wash (PBS with 1% FBS) at 1×10⁶ cells/mL. The staining was performed in 1×10⁵ cells per well. The antibodies were diluted with a ratio of 1:5 from a starting concentration of 1.3×10⁻⁰⁷ M. The diluted antibodies were then added into the wells containing cells. Cells were stained for 30 min at 2-8° C. and washed twice with FACS wash buffer. APC-conjugated goat anti-human IgG (Jackson Immuno Research, 109-607-003, 1:400) was added to stain the cells for 30 min at 2-8° C. Following washing, cells were fixed in 2% paraformaldehyde for 30 min at 2-8° C. After two washes, stained cells were analyzed using BD LSRFortessa™ FACS instrument. The results were analyzed by FlowJo. FSC/SSC gates were used to select mononuclear cells.

mouse PD1 [1] = molecular target: T2, mouse PD1 (mouse, UniProt Q02242 25-288); assay: flow cytometry on Jurkat/mPD1 cells
T2 construct: whole, on cells; also called mPD1; murine PD1
T2 sequence (looked up): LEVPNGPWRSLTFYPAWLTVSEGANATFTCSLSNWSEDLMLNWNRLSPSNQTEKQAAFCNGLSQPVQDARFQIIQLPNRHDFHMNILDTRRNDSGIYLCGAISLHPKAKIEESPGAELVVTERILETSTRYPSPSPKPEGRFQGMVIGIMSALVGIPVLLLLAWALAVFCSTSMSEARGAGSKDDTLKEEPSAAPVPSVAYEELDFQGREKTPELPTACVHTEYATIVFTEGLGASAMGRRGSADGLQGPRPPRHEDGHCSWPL
Description: as §1

mouse PD1 [2] = molecular target: T2, mouse PD1; assay: cell-based or functional assay

B1: 2 + 1 m20_mPL_1 (Fc fusion)
heavy 1: [letters of about 200 residues left out]GGGSGGGGSGGGGSQVQLQQPGAELVRPGTSVKLSCKASGYTFTSYWMHWIKQRPGQGLEWIGVIDPSDNYTKYNQKFKGKATLTVDTSSSTAYMQLSSLTSEDSAVYFCAREGYYGSSPWFAYWGQGTLVTVSSASTKGPSVFPLAPSSKSTSGGTAALGCLVKDYFPEPVTVSWNSGALTSGVHTFPAVLQSSGLYSLSSVVTVPSSSLGTQTYICNVNHKPSNTKVDKKVEPKSCDKTHTCPPCPAPEAEGAPSVFLFPPKPKDTLMISRTPEVTCVVVDVSHEDPEVKFNWYVDGVEVHNAKTKPREEQYNSTYRVVSVLTVLHQDWLNGKEYKCKVSNKALPSSIEKTISKAKGQPREPQVYTLPPCRDELTKNQVSLWCLVKGFYPSDIAVEWESNGQPENNYKTTPPVLDSDGSFFLYSKLTVDKSRWQQGNVFSCSVMHEALHNHYTQKSLSLSPGK
heavy 2: QVQLQQPGAELVRPGTSVKLSCKASGYTFTSYWMHWIKQRPGQGLEWIGVIDPSDNYTKYNQKFKGKATLTVDTSSSTAYMQLSSLTSEDSAVYFCAREGYYGSSPWFAYWGQGTLVTVSSASTKGPSVFPLAPSSKSTSGGTAALGCLVKDYFPEPVTVSWNSGALTSGVHTFPAVLQSSGLYSLSSVVTVPSSSLGTQTYICNVNHKPSNTKVDKKVEPKSCDKTHTCPPCPAPEAEGAPSVFLFPPKPKDTLMISRTPEVTCVVVDVSHEDPEVKFNWYVDGVEVHNAKTKPREEQYNSTYRVVSVLTVLHQDWLNGKEYKCKVSNKALPSSIEKTISKAKGQPREPQVCTLPPSRDELTKNQVSLSCAVKGFYPSDIAVEWESNGQPENNYKTTPPVLDSDGSFFLVSKLTVDKSRWQQGNVFSCSVMHEALHNRFTQKSLSLSPGK
light: QIVMSQSPAILSASPGEKVTMTCRARSSVSYIHWYQQKPGSSPKPWIYATSNLASGVPGRFSGSGSGTSYSLTITRVEAEDAATYYCQQWSSKPPTFGGGTKLEIKRTVAAPSVFIFPPSDEQLKSGTASVVCLLNNFYPREAKVQWKVDNALQSGNSQESVTEQDSKDSTYSLSSTLTLSKADYEKHKVYACEVTHQGLSSPVTKSFNRGEC
notes: Knob-into-hole heterodimer, 2 anti-mCD20 Fabs + 1 mPDL1 ectodomain
EC50 (mouse CD20): 6.4 nM | Max MFI (mouse CD20): 39100 MFI | EC50 (mouse PD1 [1]): 124 nM | Max MFI (mouse PD1 [1]): 13400 MFI | Max % inhibition, luciferase bioassay, 2.5 nM CD3 bsAb (mouse PD1 [2]): 16%

B3: 2 + 1 m20_mPL_2 (Fc fusion)
heavy 1: QVQLQQPGAELVRPGTSVKLSCKASGYTFTSYWMHWIKQRPGQGLEWIGVIDPSDNYTKYNQKFKGKATLTVDTSSSTAYMQLSSLTSEDSAVYFCAREGYYGSSPWFAYWGQGTLVTVSSASTKGPSVFPLAPSSKSTSGGTAALGCLVKDYFPEPVTVSWNSGALTSGVHTFPAVLQSSGLYSLSSVVTVPSSSLGTQTYICNVNHKPSNTKVDKKVEPKSCDKTHTCPPCPAPEAEGAPSVFLFPPKPKDTLMISRTPEVTCVVVDVSHEDPEVKFNWYVDGVEVHNAKTKPREEQYNSTYRVVSVLTVLHQDWLNGKEYKCKVSNKALPSSIEKTISKAKGQPREPQVYTLPPCRDELTKNQVSLWCLVKGFYPSDIAVEWESNGQPENNYKTTPPVLDSDGSFFLYSKLTVDKSRWQQGNVFSCSVMHEALHNHYTQKSLSLSPGKGGGGSGGGGSGGGGS[letters of about 200 residues left out]
heavy 2: B1 heavy 2
light: B1 light
notes: Knob-into-hole heterodimer, 2 anti-mCD20 Fabs + 1 mPDL1 ectodomain at the C-terminus of Fc
EC50 (mouse CD20): 3.52 nM | Max MFI (mouse CD20): 42700 MFI | Max MFI (mouse PD1 [1]): 1190 MFI | Max % inhibition, luciferase bioassay, 2.5 nM CD3 bsAb (mouse PD1 [2]): 10%

The remaining lines, values ahead:

EC50 (mouse CD20): 18.1 nM | Max MFI (mouse CD20): 31000 MFI | EC50 (mouse PD1 [1]): 2.95 nM | Max MFI (mouse PD1 [1]): 11600 MFI | IC50 (M), luciferase bioassay, 2.5 nM CD3 bsAb (mouse PD1 [2]): 1.92e-10 M | Max % inhibition, luciferase bioassay, 2.5 nM CD3 bsAb (mouse PD1 [2]): 27%
B2: 2 + 2 m20_mPL_1 (Fc fusion)
heavy 1: [letters of about 200 residues left out]GGGSGGGGSGGGGSQVQLQQPGAELVRPGTSVKLSCKASGYTFTSYWMHWIKQRPGQGLEWIGVIDPSDNYTKYNQKFKGKATLTVDTSSSTAYMQLSSLTSEDSAVYFCAREGYYGSSPWFAYWGQGTLVTVSSASTKGPSVFPLAPSSKSTSGGTAALGCLVKDYFPEPVTVSWNSGALTSGVHTFPAVLQSSGLYSLSSVVTVPSSSLGTQTYICNVNHKPSNTKVDKKVEPKSCDKTHTCPPCPAPEAEGAPSVFLFPPKPKDTLMISRTPEVTCVVVDVSHEDPEVKFNWYVDGVEVHNAKTKPREEQYNSTYRVVSVLTVLHQDWLNGKEYKCKVSNKALPSSIEKTISKAKGQPREPQVYTLPPCRDELTKNQVSLWCLVKGFYPSDIAVEWESNGQPENNYKTTPPVLDSDGSFFLYSKLTVDKSRWQQGNVFSCSVMHEALHNHYTQKSLSLSPGK
heavy 2: [letters of about 200 residues left out]GGGSGGGGSGGGGSQVQLQQPGAELVRPGTSVKLSCKASGYTFTSYWMHWIKQRPGQGLEWIGVIDPSDNYTKYNQKFKGKATLTVDTSSSTAYMQLSSLTSEDSAVYFCAREGYYGSSPWFAYWGQGTLVTVSSASTKGPSVFPLAPSSKSTSGGTAALGCLVKDYFPEPVTVSWNSGALTSGVHTFPAVLQSSGLYSLSSVVTVPSSSLGTQTYICNVNHKPSNTKVDKKVEPKSCDKTHTCPPCPAPEAEGAPSVFLFPPKPKDTLMISRTPEVTCVVVDVSHEDPEVKFNWYVDGVEVHNAKTKPREEQYNSTYRVVSVLTVLHQDWLNGKEYKCKVSNKALPSSIEKTISKAKGQPREPQVCTLPPSRDELTKNQVSLSCAVKGFYPSDIAVEWESNGQPENNYKTTPPVLDSDGSFFLVSKLTVDKSRWQQGNVFSCSVMHEALHNRFTQKSLSLSPGK
light: B1 light
notes: Knob-into-hole heterodimer, 2 Fabs + 2 N-terminal mPDL1 ectodomains

Max MFI (mouse CD20): 16800 MFI | Max MFI (mouse PD1 [1]): 8150 MFI | Max % inhibition, luciferase bioassay, 2.5 nM CD3 bsAb (mouse PD1 [2]): 18%
B4: m20_mPL_1 (Fc fusion)
heavy: B1 heavy 2
light: B1 light
chain: [letters of about 200 residues left out][letters of about 250 residues left out]
